# According to PubChem BioAssay (NCI):
# “And” between values parts separate entries of the source, which are not always exact repeats. Equal values may be shown once.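 Following 48 hours of exposure in 96-well plates, responses at five concentrations were used to interpolate endpoints linearly. GI50 is the concentration that inhibits growth by half. TGI: total growth inhibition.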
# Tested on: NCI-H322M lung
# Test: growth of human tumour cells (NCI), 48 h
Structure (SMILES),TGI,GI50
O=C(CC(O)(C(F)(F)F)C(F)(F)F)C(CCCl)C(O)(C(F)(F)F)C(F)(F)F (configuration not stated),> 100 µM,–
COC(=O)C(/C(=N/NC(=O)c1ccncc1)C(=O)Nc1ccccc1OC)c1nc2ccc(Cl)cc2[nH]c1=O (configuration not stated),> 100 µM,–
C[Si](C)(C)/C=C/CCC(C=O)(CCCl)c1ccccc1 (configuration not stated),> 100 µM,–
COc1ccc(C(O)c2ccc3c(c2)OCO3)cc1 (configuration not stated),> 100 µM,–
OCC1OC(n2cnc3cccnc32)CC1O (configuration not stated),> 100 µM,–
COc1ccc(/C=C/c2c(C(=O)/C=C/c3ccc(Cl)cc3)c(C)nc3ccccc23)cc1,3.06 µM,1.55 µM
COC(=O)C1=C(O)C(C(=O)OC)[C@@]2(O)[C@@H](C(=O)OC)C(c3ccc(OC(=O)/C(=C/c4ccc(Cl)cc4)c4ccc(Cl)cc4)cc3)C[C@@H]1[C@@H]2C(=O)OC (some centres not stated),> 100 µM,–
CCC1C(C)c2c([nH]c3ccccc23)C2C(=O)N(c3ccccc3)C(=O)C21 (configuration not stated),54.4 µM,–
O=C(O)c1c(O)c2cc(Br)ccc2oc1=O,> 100 µM,–
COc1ccc2c(c1)CCC1C2CC[C@@]2(C)C1CC[C@@]2(O)CNC(=O)/C=C/c1ccc(O)c(OC)c1 (some centres not stated),> 100 µM,13.3 µM
O=C(c1ccccc1Nc1ccnc(C(F)(F)F)c1)N1CCN(c2cccc(Cl)c2)CC1,> 100 µM,38.2 µM
Nc1ncnc2c1c(C(F)(F)F)cn2[C@@H]1O[C@H](CO)[C@@H](O)[C@H]1O,> 100 µM,0.901 µM
Nc1ccc2c(c1)C(=O)c1ccccc1-2,> 100 µM,–
O=c1[nH]c(=O)n(C2OC(COP(=O)(O)OP(=O)(O)O)C(O)C2O)cc1F (configuration not stated),> 50 µM,–
CN(C)CCOC(=O)COc1ccc(Cl)cc1,> 100 µM,–
S=c1nc[nH]c2c1ncn2Cc1ccco1,> 100 µM,–
C/C(=N\NC(N)=O)C(CN1CCCCC1)C(c1ccccc1)c1c(O)c2ccccc2oc1=O (configuration not stated),> 100 µM,–
Cc1cccc(C(C)(C)C)c1NC(=O)/C(Cc1nc2ccc([N+](=O)[O-])cc2[nH]c1=O)=N/NC(=O)C[N+](C)(C)C,> 100 µM,–
CNC(=O)CCC(NC(C)=O)C(=O)NC(Cc1ccc(NC(=O)CCCCC(C)=O)cc1)C(=O)NC(CCC(=O)NC)C(=O)NC (configuration not stated),> 100 µM,–
CN(C)c1ccc(/C=C2\C[C@H]3[C@@H]4CC=C5C[C@@H](N6CCCC6)CC[C@]5(C)[C@H]4CC[C@]3(C)[C@H]2O)cc1,8.92 µM and 20 µM,4.09 µM
CC1=NNC(=NCCN(C)C)C/C1=C/c1ccccc1Cl,> 100 µM,–
Oc1ccc2oc3ncc(Cl)c(-c4ccccc4)c3c2c1,> 100 µM,> 100 µM
C#CCN1C(=O)/C(=c2\sc3n(c2=O)C2C(NN=3)N(CC)C(=O)N2CC)c2ccccc21 (configuration not stated),> 100 µM,3.83 µM
O=C1c2[nH]cc(CN3CCNCC3)c2C(=O)c2c1c(O)c1ccccc1c2O,8.07 µM,1.98 µM

Structure (SMILES),TGI,GI50
c1ccc(CCN2CCCCCC2)nc1,> 100 µM,–
CCCCc1c2c(nc3c1CCc1cc4c(nc1-3)-c1nc3c(c(CCCC)c1CC4)CCC/C3=C\c1ccccc1)/C(=C/c1ccccc1)CCC2,> 100 µM,–
CCCCCCCCCCCCn1c(C)nc2ccccc21,30.1 µM,15.3 µM
COC(=O)C1=C(OC)c2cc3c(cc2C(c2cc(OC)c(OC)c(OC)c2)C1C(=O)OC)OCO3 (configuration not stated),> 100 µM,–
CC(=O)N(CN1C(=O)CCC1C(=O)O)c1ccccc1 (configuration not stated),> 100 µM,–
CC1(C)O[C@@H](CO)[C@H]([C@@]23OC[C@H]4OC(C)(C)OC4[C@@H]2OC(C)(C)O3)O1 (some centres not stated),> 100 µM,–
Cc1ccc2nc3c(C)c(Cl)c(=O)cc-3sc2c1,> 100 µM,–
S=c1nc(-c2nc(=S)[nH]c3c2CCCCCCCCCC3)c2c([nH]1)CCCCCCCCCC2,> 100 µM,–
COC(=O)C(=O)C1(CCC(C)=O)c2ccccc2-c2ccccc21,> 100 µM,–
N#CC1=C(N)C(C#N)(C#N)C(c2ccc(F)cc2)C=C1C1CC1 (configuration not stated),22.7 µM,–
O=C1NC(=S)N/C1=C/c1ccccc1O,> 100 µM,–
Cc1nc(C)c(C(=O)Nc2cccc3c2C(=O)NC3=O)cc1C(=O)Nc1cccc2c1C(=O)NC2=O,> 100 µM,–
O=C(c1ccccc1)c1c(C(F)(F)F)n([O-])c2ccccc2[n+]1=O,8.15 µM,–
CN1/C(=C\C(I)C(I)C2=[N+](C)c3ccccc3C2(C)C)C(C)(C)c2ccccc21 (configuration not stated),41.4 µM,1.01 µM
Nc1[nH]c(=O)ncc1F,> 100 µM,–
C=C(C=O)C1CC(=O)C(C(=O)OC)[C@@H]2O[C@@](C)(CC2=O)C[C@@H]2OC(=O)[C@]3(O[C@@H]23)[C@@H](C(=O)OC)C1 (some centres not stated),58.9 µM,24.1 µM
OC1CCCC1C(O)(C(F)(F)F)C(F)(F)F (configuration not stated),> 100 µM,–
Cc1cnc[nH]c1=O,> 100 µM,–
CCOC(=O)c1nc2c3c(ncn2n1)Oc1c(c(-c2ccccc2)nn1-c1ccccc1)C3c1ccc(Cl)cc1 (configuration not stated),> 100 µM,–
COC(=O)[C@H](C)N1C(=O)N[C@@H](C(C)C)C1=O,> 100 µM,–
CC(CCC(=O)O)[C@H]1CCC2[C@H]3C(CC[C@@]21C)[C@@]1(C)CCC(O)C[C@H]1C[C@@H]3O (some centres not stated),> 100 µM,–
C[C@]12O[C@H](C[C@]1(O)CO)n1c3ccccc3c3c4c(c5c6ccccc6n2c5c31)CNC4=O,6.24 µM and 6.62 µM,1.29 µM and 1.37 µM
CCOC(=O)c1ccc2nc(NC(=O)COC(=O)CSc3nc(C)cc(C)n3)sc2c1,> 100 µM,–
C#CCNC(Cc1cnc[nH]1)C(=O)O (configuration not stated),> 100 µM,–

Structure (SMILES),TGI,GI50
S=C(N/N=C\C=N/NC(=S)N1CCCCCC1)N1CCCCCC1,> 100 µM,–
CCCCC[C@@H]1OCO[C@@]2(C)/C=C(C)/C=C/C(=O)O[C@H]([C@@H](C)[C@@H](O)[C@H](C)[C@@]3(O)C[C@@H](O[C@H]4C[C@@H](O)[C@H](O)[C@@H](C)O4)[C@H](C)[C@@H](C)O3)[C@@H](OC)/C=C/C=C(\C)C[C@@H]1[C@@H]2O (stereo in doubt),1.86 µM,–
Nc1ccc(-c2nc3ccc4[nH]ncc4c3c3c2CCCC3)cc1F,14.1 µM,1.51 µM
CCOC(=O)C(C)(C)Oc1ccc2c(=O)cc(-c3ccccc3)oc2c1,> 100 µM,–
CCOC(=O)C1N(S(=O)(=O)c2ccc(C)cc2)CCC12c1ccccc1N(C(C)=O)C2C(/C=C/C(=O)OC)=C/C(=O)OC (configuration not stated),> 100 µM,–
COc1ccc(N2CCN(C(=O)c3ccccc3Nc3ccnc(C(F)(F)F)c3)CC2)cc1,> 100 µM,> 100 µM
CS(=O)(=O)OCCN1CCC2(CC1)SSC1(CCN(CCOS(C)(=O)=O)CC1)S2,> 100 µM,–
N#Cc1c(NC(=O)c2ccccc2)sc2c1CCC(=O)C2,> 100 µM,6.27 µM
COc1cc2cc(C(=O)N3CC(CCl)c4c3cc(N)c3ccccc43)[nH]c2cc1OCCN(C)C (configuration not stated),0.0166 µM,–
O=C1/C(=C/c2ccccc2)CCc2ccc(Cl)nc21,31.1 µM,–
CC(C)(CO)CNc1nc(N)nc(Cl)c1N,> 100 µM,–
Cc1cc2ccccc2c[n+]1CC(O)C[n+]1cc2ccccc2cc1C,> 100 µM,–
C/C(O)=C(\C=N\C(N)=S)C(=O)Nc1ccccc1C,> 100 µM,–
O=NC1c2cccc3cccc(c23)C1N=O (configuration not stated),27.8 µM,–
Nc1nc2c(ncn2C2OC(CO)C(O)C2N)c(=O)[nH]1 (configuration not stated),> 100 µM,–
CC[C@@]1(O)C(=O)NCc2c1cc1n(c2=O)Cc2cc3ccccc3nc2-1,> 100 µM,21.3 µM
Cc1cc2ccccc2n1CC(=O)NCC(C)C,> 100 µM,–
Cc1ccc(S(=O)(=O)n2cncc2CO)cc1,> 100 µM,–
O=C(c1ccccc1)C1C(C(=O)c2ccccc2)N1Cc1ccccc1 (configuration not stated),> 100 µM,–
Cc1c[nH]c2c1C13CC1CN(C(=O)c1cc4cc(NC(=O)c5cc6ccccc6o5)ccc4[nH]1)C3=CC2=O (configuration not stated),< 0.001 µM,> 1.17 ng/mL
O=C1NC(=O)/C(=C/C=C/c2ccccc2)S1,> 100 µM,6.27 µM
COc1ccc(SC2c3cc(OC)c(OC)cc3Oc3nc(N)c(C#N)c(N)c32)cc1 (configuration not stated),2.94 µM,1.55 µM
CN=C(Nn1cnnc1)OC,> 100 µM,–
CCN1CCN(c2nc(NNC(=O)Cc3ccccc3)nc(N3CCN(C(c4ccccc4)c4ccccc4)CC3)n2)CC1,15.5 µM,3.46 µM

Structure (SMILES),TGI,GI50
Cn1cnc([N+](=O)[O-])c1Sc1ccccn1,> 100 µM,–
COc1cc(C)c(C(=O)O[C@H]2[C@H](O[C@H]3[C@@H](O)COC(O[C@H]4C[C@H]5[C@@H]6CC=C7C[C@@H](O)CC[C@]7(C)[C@H]6CC[C@]5(C)[C@H]4[C@H](C)C(=O)CCC(C)C)[C@@H]3OC(C)=O)OC[C@@H](O)[C@@H]2O)c(C)c1 (some centres not stated),21.4 µM,4.31 µM
CN1CCn2c(Br)ccc2C1=O,> 100 µM,–
CC(=O)OCC1OC(OC2C(COC(C)=O)OC(OCCC[S-])C(OC(C)=O)C2OC(C)=O)C(OC(C)=O)C(OC(C)=O)C1OC(C)=O.[Au+].c1ccc(CN2[CH-]N(Cc3ccccc3)C(c3ccccc3)=C2c2ccccc2)cc1 (configuration not stated),17 µM,3.79 µM
NC(Cc1cc(I)c(O)c(I)c1)C(=O)O (configuration not stated),> 500 µM,–
CN(C)C[C@H]1CC[C@@H](CN(C)C)C1=O,> 50 µM,–
Cc1ccc2c(c1)C(=O)c1c-2n(CCCN)c(=O)c2cc([N+](=O)[O-])ccc12,1.34 µM,0.598 µM
COc1ccc(-c2ccc3c(NC(=O)C4CC4)n[nH]c3n2)cc1,> 25 µM,> 25 µM
O=c1[nH]cc(CS(=O)(=O)Cc2c[nH]c(=O)[nH]c2=O)c(=O)[nH]1,> 100 µM,–
CC1(O)C=CC2CCC1C2O (configuration not stated),> 100 µM,–
CCOC(=O)c1ccc(C(=O)C(C(C)=O)C(=O)OC(C)(C)C)n1C (configuration not stated),> 100 µM,–
CC#C[C@@]1(O)CCCC[C@@H]1O,> 100 µM,–
CC(NC(=O)/C(=C/c1ccccc1O)NC(=O)c1ccccc1)C(=O)O (configuration not stated),> 100 µM,–
S=c1nc(-c2ccccc2)oc(=NC2CCCCC2)n1C1CCCCC1,24.6 µM,4.59 µM
CCN(CC)CCO/N=C1\CC[C@H]2[C@@H]3CC=C4C[C@@H](O)CC[C@]4(C)[C@H]3CC[C@]12C,64.4 µM,–
O=C(/C=C/c1ccc(-c2ccccc2[N+](=O)[O-])o1)NCc1ccc(C(=O)NCCc2ccccc2)cc1,> 100 µM,–
Cc1cccc(NC(=O)C(=O)C2C(=O)NC(=O)NC2=O)c1C,> 100 µM,–
CCCCCCCCCCCC(=O)OCC1OC(n2cc(F)c(=O)[nH]c2=O)C(NC(=O)OCc2ccccc2)C(O)C1O (configuration not stated),43.5 µM,–
C=C1CCC2C3(C)COC(c4ccc(NC(C)=O)cc4)OC3CCC2(C)C1C/C=C1/C(=O)OCC1O (configuration not stated),> 100 µM,> 100 µM
COc1ccc(-c2oc(=O)ccc2C#Cc2cc(OC)c(OC)c(OC)c2)cc1O,> 100 µM,66.5 µM
c1ccc2c(CNCCCCCCNCc3cccc4ccccc34)cccc2c1,10.5 µM,–
O=C1c2ccccc2C(=O)c2c1ccc(C(Br)Br)c2[N+](=O)[O-],20.9 µM,8.52 µM
